The values that follow come from article PMC11116815.

Protein sequences, listed by entry. Tags and fused reporters are not part of them. Residues count along the entry.
UniProt P37288: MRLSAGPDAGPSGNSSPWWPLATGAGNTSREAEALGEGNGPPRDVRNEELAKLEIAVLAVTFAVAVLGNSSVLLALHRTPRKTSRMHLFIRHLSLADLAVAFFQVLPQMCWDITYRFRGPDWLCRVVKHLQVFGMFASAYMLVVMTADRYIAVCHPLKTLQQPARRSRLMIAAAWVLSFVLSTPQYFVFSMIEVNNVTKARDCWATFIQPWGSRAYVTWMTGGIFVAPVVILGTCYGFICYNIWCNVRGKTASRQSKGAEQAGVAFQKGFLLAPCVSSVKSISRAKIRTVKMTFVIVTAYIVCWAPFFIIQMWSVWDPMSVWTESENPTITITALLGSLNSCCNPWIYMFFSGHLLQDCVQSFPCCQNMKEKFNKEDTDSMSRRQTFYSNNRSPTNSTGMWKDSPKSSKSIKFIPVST
UniProt P41597: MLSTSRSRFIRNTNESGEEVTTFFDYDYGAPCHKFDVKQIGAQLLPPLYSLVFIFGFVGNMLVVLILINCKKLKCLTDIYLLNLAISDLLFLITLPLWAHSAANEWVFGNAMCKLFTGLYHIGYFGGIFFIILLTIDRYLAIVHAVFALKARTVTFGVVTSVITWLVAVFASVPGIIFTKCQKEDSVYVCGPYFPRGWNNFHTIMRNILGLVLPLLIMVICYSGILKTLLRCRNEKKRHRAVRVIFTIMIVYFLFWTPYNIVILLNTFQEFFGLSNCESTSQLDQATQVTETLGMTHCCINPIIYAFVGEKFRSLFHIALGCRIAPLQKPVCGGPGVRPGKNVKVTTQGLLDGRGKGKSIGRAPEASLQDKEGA
UniProt P51685: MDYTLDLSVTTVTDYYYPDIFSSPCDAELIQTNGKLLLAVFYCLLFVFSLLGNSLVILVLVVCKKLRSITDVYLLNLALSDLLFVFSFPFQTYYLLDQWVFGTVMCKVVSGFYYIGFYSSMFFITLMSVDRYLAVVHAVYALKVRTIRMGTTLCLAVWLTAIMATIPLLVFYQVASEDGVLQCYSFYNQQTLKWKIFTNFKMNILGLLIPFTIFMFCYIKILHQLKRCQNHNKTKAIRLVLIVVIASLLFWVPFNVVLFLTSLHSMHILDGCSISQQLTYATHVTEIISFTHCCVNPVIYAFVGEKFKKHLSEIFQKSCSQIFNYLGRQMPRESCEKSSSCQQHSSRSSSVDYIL
UniProt P25025: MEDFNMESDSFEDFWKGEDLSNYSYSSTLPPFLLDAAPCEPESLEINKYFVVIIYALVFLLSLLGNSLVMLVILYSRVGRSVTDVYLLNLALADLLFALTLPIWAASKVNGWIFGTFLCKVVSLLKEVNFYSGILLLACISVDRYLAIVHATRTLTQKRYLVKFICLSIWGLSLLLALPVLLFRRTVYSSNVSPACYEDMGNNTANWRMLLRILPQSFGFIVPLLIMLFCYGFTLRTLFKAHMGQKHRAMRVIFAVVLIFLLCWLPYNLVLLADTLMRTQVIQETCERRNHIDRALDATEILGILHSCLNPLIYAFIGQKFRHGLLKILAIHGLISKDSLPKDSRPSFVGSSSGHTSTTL
UniProt P49682: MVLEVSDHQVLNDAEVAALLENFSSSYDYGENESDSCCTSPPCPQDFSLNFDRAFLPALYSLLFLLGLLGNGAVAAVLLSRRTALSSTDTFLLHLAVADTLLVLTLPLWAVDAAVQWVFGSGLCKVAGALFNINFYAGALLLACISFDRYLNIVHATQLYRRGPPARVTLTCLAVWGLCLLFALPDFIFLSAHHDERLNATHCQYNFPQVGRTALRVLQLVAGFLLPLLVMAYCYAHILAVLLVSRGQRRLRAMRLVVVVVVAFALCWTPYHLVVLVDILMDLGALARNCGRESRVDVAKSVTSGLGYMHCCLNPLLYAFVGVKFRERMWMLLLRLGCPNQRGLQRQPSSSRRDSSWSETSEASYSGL
UniProt P61073: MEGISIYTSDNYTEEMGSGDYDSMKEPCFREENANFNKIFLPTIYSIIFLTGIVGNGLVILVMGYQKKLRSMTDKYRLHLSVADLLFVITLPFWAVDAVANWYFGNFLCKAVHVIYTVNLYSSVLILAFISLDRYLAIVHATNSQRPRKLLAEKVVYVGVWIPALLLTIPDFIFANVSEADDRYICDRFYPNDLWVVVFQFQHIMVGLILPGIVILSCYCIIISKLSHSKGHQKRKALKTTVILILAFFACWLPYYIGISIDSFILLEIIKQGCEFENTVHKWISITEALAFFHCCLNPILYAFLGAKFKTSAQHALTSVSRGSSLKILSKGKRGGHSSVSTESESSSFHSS
UniProt P32302: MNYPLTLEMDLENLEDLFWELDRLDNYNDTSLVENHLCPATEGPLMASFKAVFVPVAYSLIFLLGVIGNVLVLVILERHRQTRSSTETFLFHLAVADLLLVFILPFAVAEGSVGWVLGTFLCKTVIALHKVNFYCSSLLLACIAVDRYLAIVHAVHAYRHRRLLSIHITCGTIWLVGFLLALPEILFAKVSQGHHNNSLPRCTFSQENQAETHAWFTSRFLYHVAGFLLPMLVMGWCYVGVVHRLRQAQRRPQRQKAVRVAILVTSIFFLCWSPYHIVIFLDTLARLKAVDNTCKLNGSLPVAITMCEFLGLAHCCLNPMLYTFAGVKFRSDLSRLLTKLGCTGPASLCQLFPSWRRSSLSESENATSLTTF
UniProt O00574: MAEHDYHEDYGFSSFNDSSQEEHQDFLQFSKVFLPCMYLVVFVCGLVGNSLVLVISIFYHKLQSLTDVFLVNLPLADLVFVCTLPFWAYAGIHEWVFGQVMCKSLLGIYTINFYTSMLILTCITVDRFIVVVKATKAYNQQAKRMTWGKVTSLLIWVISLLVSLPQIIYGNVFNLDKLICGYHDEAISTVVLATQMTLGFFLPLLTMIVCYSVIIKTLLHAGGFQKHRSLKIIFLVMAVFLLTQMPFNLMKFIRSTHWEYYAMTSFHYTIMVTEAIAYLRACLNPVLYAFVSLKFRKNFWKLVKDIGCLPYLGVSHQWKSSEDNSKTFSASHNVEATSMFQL
UniProt Q13255, residues 19-1194: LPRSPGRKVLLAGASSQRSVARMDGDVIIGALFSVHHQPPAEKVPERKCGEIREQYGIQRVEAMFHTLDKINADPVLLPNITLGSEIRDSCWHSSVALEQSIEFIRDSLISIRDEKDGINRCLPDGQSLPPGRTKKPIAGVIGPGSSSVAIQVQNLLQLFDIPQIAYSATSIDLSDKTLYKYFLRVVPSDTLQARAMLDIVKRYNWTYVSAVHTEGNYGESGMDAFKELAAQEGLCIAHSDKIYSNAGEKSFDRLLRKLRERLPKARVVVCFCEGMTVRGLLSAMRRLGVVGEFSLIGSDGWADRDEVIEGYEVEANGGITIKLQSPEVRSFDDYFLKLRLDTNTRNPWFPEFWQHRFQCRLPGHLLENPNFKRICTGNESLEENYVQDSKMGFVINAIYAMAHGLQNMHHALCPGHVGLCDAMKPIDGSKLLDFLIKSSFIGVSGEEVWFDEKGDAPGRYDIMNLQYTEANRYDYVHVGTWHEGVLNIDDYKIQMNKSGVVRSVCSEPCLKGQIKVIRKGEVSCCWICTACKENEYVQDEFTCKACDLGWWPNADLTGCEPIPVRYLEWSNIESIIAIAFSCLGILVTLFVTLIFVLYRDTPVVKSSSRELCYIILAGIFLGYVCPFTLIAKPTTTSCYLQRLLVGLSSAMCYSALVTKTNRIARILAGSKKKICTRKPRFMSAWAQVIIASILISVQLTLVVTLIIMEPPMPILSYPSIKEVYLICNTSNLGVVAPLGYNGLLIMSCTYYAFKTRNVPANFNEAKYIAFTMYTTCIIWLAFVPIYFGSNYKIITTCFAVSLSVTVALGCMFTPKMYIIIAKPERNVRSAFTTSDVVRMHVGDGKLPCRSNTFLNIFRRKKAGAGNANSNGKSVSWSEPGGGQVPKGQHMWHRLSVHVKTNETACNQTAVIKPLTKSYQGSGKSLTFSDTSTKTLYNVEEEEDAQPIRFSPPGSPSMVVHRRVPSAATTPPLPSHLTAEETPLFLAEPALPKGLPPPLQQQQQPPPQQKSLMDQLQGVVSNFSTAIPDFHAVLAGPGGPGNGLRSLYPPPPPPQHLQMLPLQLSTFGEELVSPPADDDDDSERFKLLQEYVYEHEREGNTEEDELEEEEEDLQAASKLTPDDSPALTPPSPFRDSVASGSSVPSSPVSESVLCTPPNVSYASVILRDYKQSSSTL

Results are given in words; binding and its absence hold for the method and conditions named. Binding seen in cells or lysates may run through a third protein. Some entries that bind do so weakly or less than the wild type. For some assays here: Where a sequence is shown, tags or fusion partners need not be part of it.

Assay [1] has as its target arginine vasopressin receptor 1A (AVPR1A) (human (endogenous in THP-1 and human monocytes)) (UniProt P37288). Nature of the assay: proximity ligation; Duolink PLA on freshly isolated human monocytes (CD14+/CD16-), endogenous receptors.
Assay [2] shares this target. Nature of the assay: proximity ligation; Duolink PLA on fixed (4% paraformaldehyde) THP-1 cells, primary antibodies 1 μg/ml; also WT control clones, cells treated with vehicle, 10 μM aVP or 10 μM conivaptan (30 min, 37°C), NT or AVPR1A siRNA, and AVPR1A^KO and ADRA1B^KO clones.
In assay [3] the target is T1, α1B-adrenergic receptor (α1B-AR) (human (endogenous in THP-1)) (UniProt P35368).
T1 sequence: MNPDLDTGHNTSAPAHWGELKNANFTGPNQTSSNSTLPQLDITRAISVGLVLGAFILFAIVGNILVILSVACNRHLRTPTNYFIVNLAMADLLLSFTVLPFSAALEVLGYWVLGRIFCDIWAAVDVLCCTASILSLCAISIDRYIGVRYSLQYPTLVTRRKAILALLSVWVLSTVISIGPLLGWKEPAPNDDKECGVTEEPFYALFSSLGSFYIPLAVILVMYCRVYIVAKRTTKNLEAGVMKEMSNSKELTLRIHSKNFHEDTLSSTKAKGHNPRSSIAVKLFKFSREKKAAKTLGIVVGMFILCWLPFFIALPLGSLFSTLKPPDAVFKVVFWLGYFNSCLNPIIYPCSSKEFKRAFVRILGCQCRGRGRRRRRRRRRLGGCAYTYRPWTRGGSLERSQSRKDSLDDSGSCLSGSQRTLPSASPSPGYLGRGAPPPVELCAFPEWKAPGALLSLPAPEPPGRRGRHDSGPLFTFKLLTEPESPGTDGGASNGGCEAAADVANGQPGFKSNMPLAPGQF
Described as above.

In assay [4] the target is T2, α1D-adrenergic receptor (α1D-AR) (human (endogenous in THP-1)) (UniProt P25100).
T2 sequence: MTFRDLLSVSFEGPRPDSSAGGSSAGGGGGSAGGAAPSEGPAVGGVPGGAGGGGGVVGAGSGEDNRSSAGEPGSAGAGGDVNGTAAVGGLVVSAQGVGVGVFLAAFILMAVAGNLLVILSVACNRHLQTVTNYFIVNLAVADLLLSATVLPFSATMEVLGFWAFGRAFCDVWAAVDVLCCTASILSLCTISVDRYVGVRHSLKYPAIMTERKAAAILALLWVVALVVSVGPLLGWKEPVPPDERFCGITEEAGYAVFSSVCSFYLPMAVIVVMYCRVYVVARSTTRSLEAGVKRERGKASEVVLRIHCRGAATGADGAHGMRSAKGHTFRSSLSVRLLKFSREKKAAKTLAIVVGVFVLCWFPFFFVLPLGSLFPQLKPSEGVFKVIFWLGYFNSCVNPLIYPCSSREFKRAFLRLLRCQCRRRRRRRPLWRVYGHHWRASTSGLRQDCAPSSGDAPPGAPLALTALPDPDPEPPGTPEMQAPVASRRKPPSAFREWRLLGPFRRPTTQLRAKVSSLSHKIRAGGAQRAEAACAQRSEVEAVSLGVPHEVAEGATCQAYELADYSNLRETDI
The description is as above.

In assay [5] the target is AVPR1A C-terminally ligated to the energy donor Renilla luciferase (AVPR1A-Rluc) (UniProt P37288). The experiment in a line: FRET or BRET; saturation BRET in living HEK293T cells: fixed 5 ng AVPR1A-Rluc with increasing amounts of CR-YFP or mGlu1R-YFP; net BRET against YFP fluorescence/luminescence; n = 3 per receptor pair. On the technique in general: Bioluminescence resonance energy transfer reports proximity on the nanometre scale.

Assay [6] has the same target. The experiment in a line: FRET or BRET; BRET screening in living HEK293T cells: 5 ng AVPR1A-Rluc (donor) transfected with 25 ng CR-YFP (acceptor) or increasing amounts of mGlu1R-YFP (control); signals above the 99% prediction band of the mGlu1R control counted as positive; three independent screening experiments; coelenterazine H 5 μM.

Turning to “CCR2 (from UniProt P41597 1-374) (receptor)”, the binding result in assay [1], in assay [2], in assay [3] and in assay [4] was “binds” throughout.

For “CCR2-YFP (from UniProt P41597 1-374) (receptor)”, the binding entry in assay [5] and in assay [6] was “binds” in each case.

As for “CCR8 (from UniProt P51685 1-355) (receptor)”, the binding result in assay [1] and in assay [2] was “binds” throughout.

Consider “CCR8-YFP (from UniProt P51685 1-355) (receptor)”, for which the binding entry in assay [5] and in assay [6] was “binds” in each case.

On to “CXCR2-YFP (from UniProt P25025 1-360) (receptor)”, for which the binding entry in assay [5] and in assay [6] was “binds” each time.

For the molecule “CXCR3-YFP (from UniProt P49682 1-368) (receptor)”, the binding result in assay [5] and in assay [6] was “binds” each time.

With “CXCR4-YFP (from UniProt P61073 1-352) (receptor)”, the binding entry in assay [5] and in assay [6] was “binds” throughout.

“CXCR5-YFP (from UniProt P32302 1-372) (receptor)”: the binding result in assay [5] and in assay [6] was “binds” in each case.

As to “CXCR6-YFP (from UniProt O00574 1-342) (receptor)”, the binding result in assay [6] was “binds”.

Turning to “chemokine (C-X-C motif) receptor 4 (CXCR4) (from UniProt P61073 1-352)”, the binding entry in assay [1], in assay [2], in assay [3] and in assay [4] was “binds” in each case.

For the molecule “metabotropic glutamate receptor 1 (mGlu1R)-YFP (from UniProt Q13255 19-1194)”, the binding result in assay [5] and in assay [6] was “no binding” each time.

B1: α1D-adrenergic receptor (α1D-AR) (receptor, UniProt P25100 1-572)
chain: T2 sequence
As to B1, the binding result in assay [3] is listed as “binds”.

B2: CCR4-YFP (receptor, UniProt P51679 1-360)
chain: MNPTDIADTTLDESIYSNYYLYESIPKPCTKEGIKAFGELFLPPLYSLVFVFGLLGNSVVVLVLFKYKRLRSMTDVYLLNLAISDLLFVFSLPFWGYYAADQWVFGLGLCKMISWMYLVGFYSGIFFVMLMSIDRYLAIVHAVFSLRARTLTYGVITSLATWSVAVFASLPGFLFSTCYTERNHTYCKTKYSLNSTTWKVLSSLEINILGLVIPLGIMLFCYSMIIRTLQHCKNEKKNKAVKMIFAVVVLFLGFWTPYNIVLFLETLVELEVLQDCTFERYLDYAIQATETLAFVHCCLNPIIYFFLGEKFRKYILQLFKTCRGLFVLCQYCGLLQIYSADTPSSSYTQSTMDHDLHDAL
Turning to B2, the binding result in assay [5] and in assay [6] was “binds” each time.

B3: CCR1-YFP (receptor, UniProt P32246 1-355)
chain: METPNTTEDYDTTTEFDYGDATPCQKVNERAFGAQLLPPLYSLVFVIGLVGNILVVLVLVQYKRLKNMTSIYLLNLAISDLLFLFTLPFWIDYKLKDDWVFGDAMCKILSGFYYTGLYSEIFFIILLTIDRYLAIVHAVFALRARTVTFGVITSIIIWALAILASMPGLYFSKTQWEFTHHTCSLHFPHESLREWKLFQALKLNLFGLVLPLLVMIICYTGIIKILLRRPNEKKSKAVRLIFVIMIIFFLFWTPYNLTILISVFQDFLFTHECEQSRHLDLAVQVTEVIAYTHCCVNPVIYAFVGERFRKYLRQLFHRRVAVHLVKWLPFLSVDRLERVSSTSPSTGEHELSAGF
Consider B3, for which the binding result in assay [5] and in assay [6] was “binds” in each case.

B4: chemokine (C-C motif) receptor (CCR)1 (receptor, UniProt P32246 1-355)
chain: B3 chain
In the case of B4, the binding result in assay [1], in assay [2], in assay [3] and in assay [4] was “binds” throughout.

B5: CXCR1-YFP (receptor, UniProt P25024 1-350)
chain: MSNITDPQMWDFDDLNFTGMPPADEDYSPCMLETETLNKYVVIIAYALVFLLSLLGNSLVMLVILYSRVGRSVTDVYLLNLALADLLFALTLPIWAASKVNGWIFGTFLCKVVSLLKEVNFYSGILLLACISVDRYLAIVHATRTLTQKRHLVKFVCLGCWGLSMNLSLPFFLFRQAYHPNNSSPVCYEVLGNDTAKWRMVLRILPHTFGFIVPLFVMLFCYGFTLRTLFKAHMGQKHRAMRVIFAVVLIFLLCWLPYNLVLLADTLMRTQVIQESCERRNNIGRALDATEILGFLHSCLNPIIYAFIGQNFRHGFLKILAMHGLVSKEFLARHRVTSYTSSSVNVSSNL
As to B5, the binding entry in assay [5] and in assay [6] was “no binding” in each case.

B6: chemokine (C-X-C motif) receptor (CXCR)1 (receptor, UniProt P25024 1-350)
chain: B5 chain
Regarding B6, the binding entry in assay [1] and in assay [2] was “no binding” in each case.
